# Out of some 310,000 compounds screened, about 14,000 (4.5%) showed an effect of 50% or more. Effects have a minus sign here. The list shows a part of the results.
# Biological target: human ether-à-go-go-related gene (hERG) potassium channel (human, UniProt Q12809)
# Assay: primary screen, population patch clamp on CHO cells stably expressing hERG
# 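Also: peak tail current of the secondary pulse compared with the same well before compound.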
# Chain of human ether-à-go-go-related gene (hERG) potassium channel (Q12809 whole entry, looked up): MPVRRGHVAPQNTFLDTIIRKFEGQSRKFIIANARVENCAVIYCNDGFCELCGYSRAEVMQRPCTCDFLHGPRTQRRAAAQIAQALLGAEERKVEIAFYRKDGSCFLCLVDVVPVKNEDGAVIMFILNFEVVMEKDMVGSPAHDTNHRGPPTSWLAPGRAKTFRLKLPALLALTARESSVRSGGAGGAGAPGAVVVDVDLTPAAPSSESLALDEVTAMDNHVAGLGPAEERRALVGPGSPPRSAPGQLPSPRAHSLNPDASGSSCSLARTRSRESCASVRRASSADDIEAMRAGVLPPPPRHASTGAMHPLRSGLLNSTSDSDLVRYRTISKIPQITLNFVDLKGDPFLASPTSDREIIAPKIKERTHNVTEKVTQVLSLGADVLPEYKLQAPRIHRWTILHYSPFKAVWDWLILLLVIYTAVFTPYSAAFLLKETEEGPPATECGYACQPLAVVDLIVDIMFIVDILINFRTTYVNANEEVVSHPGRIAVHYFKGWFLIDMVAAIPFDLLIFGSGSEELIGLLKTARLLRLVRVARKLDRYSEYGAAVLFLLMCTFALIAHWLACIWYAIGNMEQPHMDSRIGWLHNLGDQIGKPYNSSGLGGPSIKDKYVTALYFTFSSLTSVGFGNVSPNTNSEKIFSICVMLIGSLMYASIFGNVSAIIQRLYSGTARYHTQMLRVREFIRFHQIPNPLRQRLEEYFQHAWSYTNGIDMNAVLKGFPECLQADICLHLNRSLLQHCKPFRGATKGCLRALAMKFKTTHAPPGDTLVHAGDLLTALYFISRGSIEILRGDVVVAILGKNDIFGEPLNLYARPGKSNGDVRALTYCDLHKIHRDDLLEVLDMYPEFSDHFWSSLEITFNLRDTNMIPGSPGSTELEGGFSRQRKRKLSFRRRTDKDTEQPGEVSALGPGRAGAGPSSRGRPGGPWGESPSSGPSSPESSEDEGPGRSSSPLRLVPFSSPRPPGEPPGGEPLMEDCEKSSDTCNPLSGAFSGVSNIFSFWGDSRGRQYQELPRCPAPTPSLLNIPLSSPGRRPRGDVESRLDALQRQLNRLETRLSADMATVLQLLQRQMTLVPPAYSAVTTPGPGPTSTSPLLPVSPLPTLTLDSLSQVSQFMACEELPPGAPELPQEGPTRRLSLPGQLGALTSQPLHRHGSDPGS
row,Structure (SMILES),"hERG current change (%, negative = inhibition) at 10uM [%]"
1,O=C(NCCC1=CCCCC1)NC12CC3CC(CC(C3)C1)C2,0.663
2,CC(C)N1C(=O)N(c2cccc(Cl)c2)C(C)(O)CC1(C)C (centres unmarked),17.5
3,O=C(c1ccccc1)N1CCCCC(Sc2nnc3ccccn23)C1=O (centres unmarked),5.24
4,CCCCNC(=O)CN(CCc1ccccc1)S(C)(=O)=O,-12.6
5,COc1ccc(-c2nnc(SCc3nnc(-c4ccccc4)o3)n2C)cc1OC,-54.3
6,Cc1ccc(OCCC(=O)OC(C)C(=O)NC2CC2)cc1 (centres unmarked),11.8
7,CC(=O)Nc1cc(C(=O)NCc2ccco2)ccc1Sc1ccc(Cl)cc1,-35.6
8,COc1cc(-c2nc(-c3ccc(NC(=O)c4ccc5c(c4)OCO5)cc3)no2)cc(OC)c1OC,14.3
9,O=C(Cn1nc(C(F)(F)F)cc1C1CC1)NCc1ccccc1F,-3.07
10,C=Cn1ccnc1P(=S)(c1cc(N(CC)CC)ns1)c1nccn1C=C,3.74
11,CCOc1ncccc1C(=O)OCC(=O)Nc1ccc(S(=O)(=O)N2CCCC2)cc1,-11.6
12,CC1(C)Cc2c(sc3c2c(=N)n(Cc2ccco2)c(=O)n3Cc2ccccc2)CO1,-12.5
13,O=C(CSc1n[nH]c(-c2ccco2)n1)Nc1sc2c(c1C(=O)Nc1ccccc1)CCCC2,-41
14,O=C(c1ccc2[nH]c(=O)c(=O)[nH]c2c1)N1CCN(c2ccccc2)CC1,-0.599
15,COC(=O)CN1C(c2ccc(OC)cc2)=Nc2ccc(Cl)cc2C1c1ccccc1 (centres unmarked),-33.7
16,COc1cc(SC)ccc1C(=O)OCc1nc2ccsc2c(=O)[nH]1,-30.6
17,CC(=O)c1cccc(NC(=O)CCC2CCCC2)c1,0.483
18,CCn1c(=O)c2c(nc(SCC(=O)N3CCCC(C)C3)n2C)n(C)c1=O (centres unmarked),8.52
19,Cc1ccc(S(=O)(=O)CCC(=O)OCC(=O)c2cc(C)ccc2C)cc1,5.74
20,O=C(CN1C(=O)COc2ccc(S(=O)(=O)N3CCCCC3)cc21)NCc1ccc(F)cc1,30.8
21,CN(C)CCOC(=O)CC12CC3CC(C1)CC(CC(=O)OCCN(C)C)(C3)C2.Cl,12.4
22,O=C(Nc1ccc(Br)c(Cl)c1)c1ccco1,-5.17

row,Structure (SMILES),"hERG current change (%, negative = inhibition) at 10uM [%]"
1,CC(C)c1ccc(S(=O)(=O)N2CCN(C(=O)c3ccc(N4CCCC4)c([N+](=O)[O-])c3)CC2)cc1,-55.1
2,O=[N+]([O-])c1ccc(O)c(/C=N/Nc2ncnc3c2cnn3-c2ccccc2)c1,22.7
3,O=C(CSc1nnc(C2CC2)n1C1CC1)c1ccc(F)cc1,0.657
4,COc1ccc(N2CCN(C(=O)CC(C)S(=O)(=O)c3ccc4c(c3)NC(=O)CO4)CC2)cc1 (centres unmarked),-8.12
5,O=C(Oc1ccccc1F)c1ccc2c(=O)n3c(nc2c1)CCC3,-15.5
6,COCCNC(=O)C1CC(c2ccc(F)cc2)=NO1 (centres unmarked),9.3
7,CN(Cc1nc(-c2ccc(Cl)cc2)no1)C(=O)c1ccco1,-8.47
8,O=C(NCc1cc(C(F)(F)F)cc(C(F)(F)F)c1)C1CC(c2cccc(F)c2)=NO1 (centres unmarked),-3.05
9,CN1CCN(CC(=O)O)CC1,9.84
10,Cc1ccccc1NS(=O)(=O)c1ccc(OCC(=O)N2CCCC2)cc1,-6.57
11,O=C(Nc1ccc(Oc2ccc(C(F)(F)F)cn2)c(Cl)c1)C1CC1,18.6
12,Cc1cc(C)c(NC(=O)COC(=O)c2c(C)noc2C)c(Cl)c1,13.8
13,Cc1nc2c(C(=O)N3CCCCC3)cnn2c(C)c1Cc1ccccc1F,-32.1
14,COc1cccc(CNC(=O)CSc2nc(=O)n(Cc3ccncc3)c3c2CCC3)c1,-2.74
15,CC(C)c1ccc(/C=N/NC(=O)c2cc(-c3cccc([N+](=O)[O-])c3)n[nH]2)cc1,11
16,O=C1C(Nc2ccccc2)=C(N2CCCCC2)C(=O)c2ccccc21,1.85
17,CC(=O)Nc1ccc(NC(=O)C(C)OC(=O)c2ccccc2C(=O)c2ccc(Cl)c([N+](=O)[O-])c2)cc1 (centres unmarked),-7.67
18,CN(C)/C=C/C(=O)c1ccc(OCCN(C)c2ccccn2)cc1,3.55
19,Cn1c2ccccc2c2cnn(CC(=O)Nc3ccc(F)cc3F)c(=O)c21,-4.39
20,Cc1nc2nc(SCC(=O)N3CCOCC3)nn2c(C)c1Cc1c(F)cccc1Cl,-38.3
21,COc1ccc([N+](=O)[O-])cc1NC1CCCCC1.O=C(O)C(=O)O,-2.1
22,Cc1cc(C)cc(N(CC(=O)N2CC=C(c3ccccc3)CC2)S(=O)(=O)c2c(C)noc2C)c1,3.05

row,Structure (SMILES),"hERG current change (%, negative = inhibition) at 10uM [%]"
1,Cc1ccc(NC(=O)c2ccc3ccccc3n2)cc1S(=O)(=O)N(C)C,6.21
2,N#CC1(NC(=O)COc2cccnc2[N+](=O)[O-])CCCCC1,7.48
3,Cc1nc(C)c(C(=O)N2CCCC(CCC(=O)NCc3ccc(F)c(F)c3)C2)s1 (centres unmarked),2.68
4,Cc1ccc(NC(=O)C2CCN(S(=O)(=O)c3ccc4c(c3)C(C)(C)C(=O)N4C)CC2)c(C)c1,19.2
5,O=C(N/N=C/c1ccccn1)c1c[nH]c2ccccc12,12.7
6,O=C(Cc1ccccc1F)NC1CCCc2ccccc21 (centres unmarked),10.8
7,Cn1c(CCN2CCCCC2)nc2cc(NC(=O)COc3ccc(Cl)cc3)ccc21,-84.8
8,Cc1nc2ccccc2cc1C(=O)NCc1ccccc1,2.49
9,COc1cc(NC(=O)C2CCN(S(=O)(=O)c3cccs3)CC2)cc(OC)c1,1.97
10,O=C(Nc1ccc(Cc2ccncc2)cc1)c1ccco1,-12.3
11,CC1C(=O)Nc2ccc(S(=O)(=O)NCc3ccc(Cl)cc3)cc2NC1=O (centres unmarked),16.8
12,Cn1c2ccc(F)cc2c2nnc(SCC(=O)Nc3cccc(O)c3)nc21,-19
13,Cc1nccn1CC(=O)N/N=C/c1ccc(O)c(O)c1,2.01
14,CCOc1cc(CN2CCC(CO)(Cc3cccc(C(F)(F)F)c3)CC2)ccc1OC,-76.6
15,CC(C)(O)C#Cc1ccc(C(=O)N2CCCC2C(=O)O)s1 (centres unmarked),16.9
16,C=CCOc1c(Br)cc(/C=C2\SC(=Nc3ccccc3)NC2=O)cc1OC,10.2
17,O=c1ccc2cc(S(=O)(=O)NCCCc3ccccc3)ccc2[nH]1,2.26
18,NC(=S)N/N=C/c1ccccc1OC(=O)c1cc2ccccc2oc1=O,28.3
19,Cc1cc(C)cc(N2CC(C)Cn3c2nc2c3c(=O)[nH]c(=O)n2C)c1 (centres unmarked),-2.03
20,O=[N+]([O-])c1ccc(Oc2cccc(F)c2)c2ccncc12,-1.75
21,CCOC(=O)c1cccc(NS(=O)(=O)c2cnc[nH]2)c1,17.5
22,CCc1ccc2c(c1)cc(CN(C(=S)Nc1cccc(C)c1)C1CC1)c1nnnn12,4.8

row,Structure (SMILES),"hERG current change (%, negative = inhibition) at 10uM [%]"
1,COc1ccc(N2CC(NC(=O)Nc3ccccc3)CC2=O)cc1 (centres unmarked),-25.1
2,COc1ccc(S(=O)(=O)NC2(C(F)(F)F)NC(=O)N(CCc3ccc(OC)c(OC)c3)C2=O)cc1 (centres unmarked),14.5
3,CC(C)(O)C#Cc1ccc(C(=O)N2CCC(C(N)=O)(N3CCCCC3)CC2)cc1,-4.64
4,O=C(COC(=O)c1ccccc1NCCO)NCCC1=CCCCC1,-27.7
5,Cc1cc(C(=O)Nc2ccon2)cs1,-15.3
6,O=C(Nc1ccncc1)C1CCN(S(=O)(=O)c2c(Cl)cccc2Cl)CC1,-29.2
7,O=C(NCCOC(=O)c1ccccc1)c1ccccc1,10.2
8,CCOCCCNC(=O)C(NC(=O)c1ccc2c(c1)OCO2)c1ccc(Cl)cc1 (centres unmarked),-30.4
9,CCNc1ccc(Br)cc(C(=O)/C=C/c2ccc(Cl)cc2)c1=O,1.68
10,COc1ccccc1CNC(=O)C(=O)c1cn(CC(=O)N2CCCC2)c2ccccc12,15.1
11,Cc1cc(NC(=O)CCSc2ccccc2)ccc1Br,4.16
12,Cc1ccc(NC(=O)C2CCN(C(=O)OC(C)(C)C)CC2)cc1S(=O)(=O)N1CCCCC1,-12.3
13,CCOC(=O)c1[nH]c(C)c(C(=O)N2CCC3(CC2)OCCO3)c1C,15.1
14,Cc1ccc(S(=O)(=O)N(C)CC(=O)NCCCc2ccccc2)cc1,-22.2
15,O=C(O)CN1C(=O)NC2(CCCc3ccccc32)C1=O (centres unmarked),19.3
16,O=C(Nc1ccc2c(c1)C(=O)NC2=O)c1ccc2ncsc2c1,4.82
17,Cc1ccc(C(=O)NCCn2cc(SCC(=O)N3CCOCC3)c3ccccc32)cc1,-2.69
18,COc1ccc2cc(C#N)c(SCC(=O)N3CC(=O)Nc4ccccc43)nc2c1,14.9
19,Cc1ccc(NC(=O)CCN2CCC(C(N)=O)CC2)cc1,17.3
20,COc1cccc(C(C)N(C)Cc2nc(COc3ccccc3)no2)c1 (centres unmarked),-18.7

# Source: publication PMC4336329 (PLoS ONE, 2015)
